Measured values taken from publication PMC4336329 (PLoS ONE, 2015).
Hit rate of the full screen: of about 310,000 compounds, about 14,000 (4.5%) showed an effect of 50% or more. The effect is printed as a negative number. The list shows a part of the results.

Target: human ether-à-go-go-related gene (hERG) potassium channel (human, UniProt Q12809)
Test: primary screen, population patch clamp on CHO cells stably expressing hERG
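Also: peak tail current of the secondary pulse compared with the same well before compound.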

Sequence of human ether-à-go-go-related gene (hERG) potassium channel (Q12809 whole entry, looked up): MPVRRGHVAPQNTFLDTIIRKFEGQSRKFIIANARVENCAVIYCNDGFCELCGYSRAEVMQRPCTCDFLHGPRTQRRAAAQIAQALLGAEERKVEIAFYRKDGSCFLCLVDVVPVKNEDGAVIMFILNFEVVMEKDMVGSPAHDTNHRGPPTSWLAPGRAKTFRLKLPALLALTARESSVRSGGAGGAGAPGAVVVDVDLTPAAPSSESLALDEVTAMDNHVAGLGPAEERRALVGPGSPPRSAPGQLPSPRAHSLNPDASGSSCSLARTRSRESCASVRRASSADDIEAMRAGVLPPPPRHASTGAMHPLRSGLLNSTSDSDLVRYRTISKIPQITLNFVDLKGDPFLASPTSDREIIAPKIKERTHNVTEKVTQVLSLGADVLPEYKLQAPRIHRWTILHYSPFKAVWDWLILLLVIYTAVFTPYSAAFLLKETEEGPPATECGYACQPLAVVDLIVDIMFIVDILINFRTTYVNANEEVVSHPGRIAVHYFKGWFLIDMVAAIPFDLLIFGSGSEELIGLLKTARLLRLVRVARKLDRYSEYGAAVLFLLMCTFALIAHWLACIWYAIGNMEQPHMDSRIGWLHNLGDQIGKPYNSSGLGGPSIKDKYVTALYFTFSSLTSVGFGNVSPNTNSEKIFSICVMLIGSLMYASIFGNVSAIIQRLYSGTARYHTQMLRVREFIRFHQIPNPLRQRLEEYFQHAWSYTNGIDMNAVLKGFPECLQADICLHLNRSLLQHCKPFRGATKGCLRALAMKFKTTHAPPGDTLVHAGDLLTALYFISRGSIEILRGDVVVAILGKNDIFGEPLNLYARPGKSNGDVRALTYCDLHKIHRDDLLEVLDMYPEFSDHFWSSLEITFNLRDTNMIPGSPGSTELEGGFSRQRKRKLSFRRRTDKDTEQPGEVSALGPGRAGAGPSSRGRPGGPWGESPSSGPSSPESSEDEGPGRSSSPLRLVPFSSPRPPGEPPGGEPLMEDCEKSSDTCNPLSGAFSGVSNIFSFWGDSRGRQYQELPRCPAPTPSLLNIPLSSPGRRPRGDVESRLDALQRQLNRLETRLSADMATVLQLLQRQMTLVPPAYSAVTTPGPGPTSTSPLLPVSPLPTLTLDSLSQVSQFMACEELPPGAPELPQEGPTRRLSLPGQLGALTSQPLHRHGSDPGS

In order of rising “hERG current change (%, negative = inhibition) at 10uM” value:
1. COc1cc2c(cc1OC)CN(C(=O)COc1ccc(C#N)cc1)CC2  -63.4%
2. CCc1ccccc1Nc1cc(C(=O)NCc2ccccn2)c2ccccc2n1  -57.8%
3. Cc1ccc(NC(=O)c2cc([N+](=O)[O-])ccc2N2CCOCC2)cc1S(=O)(=O)N(C)C  -52.8%
4. CSc1ccc(C#N)cc1NC(=O)c1ccccc1C  -49.2%
5. CCCNC(=O)C1(CC2CC(c3ccccc3)=NO2)CCN(C(=O)OC(C)(C)C)CC1 (stereo not drawn)  -48.6%
6. COC(=O)c1cn(NC(=O)Cc2ccc(Cl)cc2)c(=O)c2ccccc12  -47.7%
7. CCOC(=O)C1(CCOC)CCN(C/C=C/c2ccccc2OC)CC1  -46.1%
8. COc1cccc2c1OCC([C@@H]1C[C@H]3CN(Cc4cccc(Cl)c4)C(=O)[C@]34CCCN14)=C2  -45.2%
9. Cc1nc2c(-c3ccccc3)c(C)nn2c(C)c1CCC(=O)N1CCC2(CC1)OCCO2  -40.5%
10. CCCCS(=O)(=O)Nc1ccc2c(c1)ncn2C1CCCCC1  -32.7%
11. CCC1Oc2ccc(C)cc2N(CC(=O)N(Cc2ccncc2)Cc2ccco2)C1=O (stereo not drawn)  -31.4%
12. CCC1=NN(C(=O)Cc2ccc([N+](=O)[O-])cc2)C(O)(c2ccc(Br)cc2)C1 (stereo not drawn)  -26%
13. O=C(c1ccc(Br)c(S(=O)(=O)N2CCCCC2)c1)N1CCCCC1  -16.2%
14. COc1cc(C(=O)c2c(C)c(CCC#N)n3ccccc23)cc(OC)c1OC  -15%
15. Cc1ccc(CNC(=O)COc2ccc3c(c2)CCC3)cc1  -13.3%
16. CCOC(=O)C1CCCN(CC(O)COCc2ccccc2OC)C1 (stereo not drawn)  -9.18%
17. Cc1cccc(NC(=O)c2cccc(S(=O)(=O)N3CCCC3)c2)n1  -8.05%
18. Cc1cc(C)n(C(=O)CNC(=O)c2ccc(Cl)cc2Cl)n1  -7.79%
19. O=C(Cn1cnc2c(nnn2Cc2ccc(F)cc2)c1=O)OCc1ccccc1  -7.74%
20. CCOc1ccc(N/C=C/C(=O)c2cc(OC)c(OC)c(OC)c2)cc1  -7.15%
21. COc1ccc(CNC(=O)c2ccc(CS(=O)(=O)c3ccc(C)cc3)o2)cc1  -6.81%
22. CCC(=O)N(CCC(Cc1ccccc1)c1ccc2c(c1)OCO2)Cc1ccccc1F (stereo not drawn)  -5.97%
23. CCOC(=O)C1CCCN(c2c(NCCN(C)Cc3ccccc3)c(=O)c2=O)C1 (stereo not drawn)  -4.11%
24. Cc1nnc(NC(=O)CSc2nnnn2Cc2ccccc2)s1  -3.64%
25. O=C(Nc1ccccc1F)C1CCN(C(=O)Cc2ccccc2)CC1  -2.34%
26. COC(=O)C1=C(C)NC(c2c(O)ccc3ccccc23)C(C(=O)OC)=C1C (stereo not drawn)  -2.31%
27. C/C(=N/NC(=O)c1ccc2nc[nH]c2c1)c1cccs1  -2.29%
28. COc1ccccc1-c1c(C)[nH]n2c(=O)c(Cc3ccccc3)c(C)nc12  -2.24%
29. COC(=O)CN1C(=O)N/C(=C/c2cc3c(cc2OC)OCO3)C1=O  -2.11%
30. O=C(CN1C(=O)c2ccccc2S1(=O)=O)N1CCOCC1  -1.82%
31. NC(=O)c1ccc(-n2nnnc2Oc2ccccc2)cc1  -1.43%
32. Cc1ccc2c(c1)NC(=O)C(CC(=O)NCCCN1CCCCC1)O2 (stereo not drawn)  -0.113%
33. C(=N\Nc1ccc2ccccc2n1)/c1ccc2c(c1)OCCO2  0.268%
34. COc1cc(/C=N\NC(=O)c2c(C)nc3cc(C)ccn23)ccc1O  0.355%
35. COc1ccc(/C=N/Nc2ncnc3sc4c(c23)CCCC4)cc1OC  0.863%
36. C=CCn1c(SCC(=O)c2cccs2)nc2sc(C)cc2c1=O  1.56%
37. CCC(=O)c1cc2c(cc1NC(=O)c1ccc(C)cc1)OCCO2  2.46%
38. COc1cc2nc(COc3ccccc3[N+](=O)[O-])oc(=O)c2cc1OC  2.86%
39. O=C(CSc1ccccc1)Nc1ccccc1C(=O)O  2.87%
40. Cc1ccc(S(=O)(=O)N(C)C)cc1NC(=O)COC(=O)/C=C/c1cnc2ccccc2n1  3.06%
41. CC1(C)CC2CC(C)(CN2C(=S)NC(=O)c2ccccc2Cl)C1 (stereo not drawn)  3.14%
42. CCOC(=O)C[C@H]1c2ccccc2S(=O)(=O)N1c1ccccc1  3.36%
43. COc1ccc(-n2nnnc2S(=O)(=O)Cc2ccc(C(=O)O)cc2)cc1  4.17%
44. CC1=Nc2nc(N3CCCCC3)c(C#N)c3c4c(nc(c23)N1)N(c1ccc(C(C)C)cc1)C(=O)C4.CN(C)C=O  4.19%
45. O=C1c2ccc(Oc3cccc([N+](=O)[O-])c3)cc2C(=O)N1c1ccccn1  4.5%
46. Cc1ccc2nc3sc(C(=O)N4CCOCC4)c(N)c3cc2c1  4.91%
47. COc1ccc(-c2cc3ccccc3s2)cc1[C@H]1[C@H]2C=CC[C@@H](C)[C@@H]2C(=O)N1Cc1ccccc1  5.07%
48. O=S(=O)([N-]c1nc2ccccc2nc1-[n+]1ccc(CCCc2ccccc2)cc1)c1cccs1  5.49%
49. Cc1ccccc1NNC(N)=S  5.65%
50. CCCCN1C(=O)C(=O)N(CC(=O)Nc2cc(S(=O)(=O)N(C)C)ccc2C)C1=O  6.6%
51. Cc1ccsc1/C=C/c1ccc2ccccc2n1  7.43%
52. O=C(CN1C(=O)c2ccccc2S1(=O)=O)Nc1ccccc1C(=O)NCc1ccco1  7.89%
53. Cc1ccccc1CC(=O)Nc1ccon1  8%
54. COC(=O)c1scc(C)c1NC(=O)C1CCCCC1  8.47%
55. CC(C)(C)OC(=O)NCCCC[C@H](NC(=O)c1nc[nH]c1C(=O)NC(c1ccccc1)c1ccccc1)C(=O)OC(C)(C)C  8.48%
56. COc1ccc(NC(=O)[C@H](C)NC(=O)[C@@H]2Cc3ccccc3CN2C(=O)OC(C)(C)C)cc1  8.54%
57. COCCSc1ccccc1C(=O)N1CCN(c2ccccc2OC)CC1  8.73%
58. CCc1ccc(N2C(=O)CC(Cn3nc(C)cc3C)C2=O)cc1 (stereo not drawn)  8.91%
59. Cc1ccc2c(=O)n3c(nc2c1)C(Cc1ccccc1)NC(=O)c1ccc(Cl)cc1-3 (stereo not drawn)  9.28%
60. Cc1ccc(NC(=O)CN(C)C(=O)c2sc3cc(Cl)ccc3c2Cl)cc1  9.95%
61. Cc1cc(C)c(C)c(C(=O)c2ccccc2C(=O)O)c1C  10.1%
62. Cc1ccc(-c2nnc(-c3ccccc3S(=O)(=O)Cc3ccc(Cl)cc3)o2)cc1  10.5%
63. CN(C)C(=O)c1ccc(NC(=O)c2sccc2-c2ccccc2)cc1  11%
64. COC(=O)c1cn(-c2cccc(C)n2)cn1  11.7%
65. O=C(CN1CCCC1)N1CCCc2ccccc21.O=C(O)C(=O)O  13.8%
66. COC(=O)c1ccc(NC(=O)CCS(=O)(=O)c2ccc(Br)s2)cc1  14.1%
67. c1c2c(cc3sc(N4CCOCC4)nc13)OCO2  14.1%
68. CC(=O)Nc1ccc(NC(=O)C(C)OC(=O)C2CC(=O)N(CCc3ccccc3)C2)cc1 (stereo not drawn)  14.4%
69. O=C(Nc1nnc(-c2ccc(F)cc2)s1)c1ccco1  14.5%
70. COc1cc2[nH]c(C(=O)NN)c(N)c2cc1OC  14.6%
71. COc1ccc2sc(-c3ccccc3OC)c(C#CC(C)(C)O)c2c1  14.6%
72. CCCc1nn2c(=O)cc(CSCC(=O)Nc3ccccc3OC)nc2s1  14.8%
73. COc1ccc(N(CC(=O)NCCc2ccccc2)C(=O)CCC(=O)Nc2nccs2)cc1  14.9%
74. Cc1ccc(/C=N\NC(=O)Cc2noc3ccccc23)cc1  15.6%
75. CCO/C=C1\C(=O)N(c2ccc(OCC)cc2)C(=O)c2ccccc21  16.4%
76. O=C(COC(=O)c1cccs1)NCc1cccs1  16.5%
77. CS(=O)(=O)N(Cc1cccc(CN(C(C(=O)O)c2ccccc2)S(C)(=O)=O)c1)C(C(=O)O)c1ccccc1 (stereo not drawn)  17%
78. CN(C(=O)C1CCCC1)C1CCS(=O)(=O)C1 (stereo not drawn)  17.3%
79. COc1cccc(CC2(CO)CCN(Cc3cn(C)nc3C)CC2)c1  18.3%
80. Cc1ccc(C(C(=O)NCc2ccco2)N(C(=O)Cc2cccs2)c2cccnc2)cc1 (stereo not drawn)  20.4%
81. CC1(OC(=O)C2CCCC2)C(=O)C=C2C=C3CCCCN3C=C2C1=O (stereo not drawn)  20.4%
82. CC(Oc1ccccc1F)C(=O)NNC(=O)CCNC(=O)c1ccccc1Cl (stereo not drawn)  21.6%
83. COc1ccc(C2=CC(c3ccc(F)cc3)n3nnnc3N2)cc1 (stereo not drawn)  21.9%
84. CC(=O)COC(=O)C1=NN(c2ccccc2)C(=O)CC1  23.7%
85. CCOc1ccc(NC(=O)n2ncc3c(C)cccc32)cc1  25.4%
86. Cc1nc2nc(SCC(=O)O)nn2c(C)c1Cc1ccccc1Cl  30.8%
87. CC(C)n1c(O)c(C=NCc2ccccc2)c(=O)[nH]c1=S  33.4%
